Test results as given in publication PMC6602471.
This is one part of the list. At the low end of the ranking the order means little.

What follows are sequences tested against T1, ELK1 (UniProt P19419) (assay: custom PBM). Conditions: custom protein-binding microarray; buffer, salt, pH and temperature not stated; high values mean tight binding; double strand, one strand shown.
T1 sequence: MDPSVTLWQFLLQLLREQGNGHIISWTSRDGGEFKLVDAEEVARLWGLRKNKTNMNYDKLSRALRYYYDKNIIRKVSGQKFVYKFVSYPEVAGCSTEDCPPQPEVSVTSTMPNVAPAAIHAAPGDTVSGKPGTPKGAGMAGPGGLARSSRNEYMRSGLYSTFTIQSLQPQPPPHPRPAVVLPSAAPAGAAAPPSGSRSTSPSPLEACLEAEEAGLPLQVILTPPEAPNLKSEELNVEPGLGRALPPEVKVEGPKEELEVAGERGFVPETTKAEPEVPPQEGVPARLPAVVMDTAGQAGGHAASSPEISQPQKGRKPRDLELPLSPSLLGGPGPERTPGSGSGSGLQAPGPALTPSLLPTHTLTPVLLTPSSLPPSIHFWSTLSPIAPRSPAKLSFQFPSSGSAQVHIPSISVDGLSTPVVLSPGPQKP

Sequence	binding signal (log fluorescence intensity)
GTGTATAGGACCCCATCCAACACACGTGTTAAAATGGTCTTGATTCGCTTGACGCTGCTG	8.75
CACAATTTTTACCGTAATGTAGCACGCGTAACTCCTGTCTTGATTCGCTTGACGCTGCTG	8.86
TACTGCCTTATATATGCGAATGCACATGAATAGACCGTCTTGATTCGCTTGACGCTGCTG	9.03
CACAATTTTTACAGTAATGTAGCACGCGTAATTCCTGTCTTGATTCGCTTGACGCTGCTG	8.98
TCCTGACTTATATATGCGAATGCACATGAATAGACCGTCTTGATTCGCTTGACGCTGCTG	8.85
TCCGGCTACCAGCTCCACCCACTTCAGGCCTTGAAGGTCTTGATTCGCTTGACGCTGCTG	8.77
TAAAGGGAATACGGTTGTGGTAGTTCCGGGTATTAAGTCTTGATTCGCTTGACGCTGCTG	11.1
CAGCATAGGACTTCTACCCTGAAGCAATTGATAACCGTCTTGATTCGCTTGACGCTGCTG	8.72
TAAAGGGAAGACGGTTGTGGTAGTTCCGGGTATTGAGTCTTGATTCGCTTGACGCTGCTG	11.3
CAGCATAGGACTTCTTCCCTGAAGCAATTTATAACCGTCTTGATTCGCTTGACGCTGCTG	8.72
CTGGGACTTTACCCAACTCTGCCACGTGGGTCGTTTGTCTTGATTCGCTTGACGCTGCTG	8.67
CACAATTTTTACAGTAATGTAGCACGCGTAACTCTTGTCTTGATTCGCTTGACGCTGCTG	8.84
GATTAATTTCTGCCCTTATTCGCACGTGCCATAGCAGTCTTGATTCGCTTGACGCTGCTG	8.8
TGTCGGGTAAGGGAATGTAGATCACCTGAATGAAAAGTCTTGATTCGCTTGACGCTGCTG	8.81
GTGTATAGGATCCCATCCAACACACGTGTTAAATTGGTCTTGATTCGCTTGACGCTGCTG	8.89
GTGTATAGGATCCCATCCAACACAGGTGTTAAAATGGTCTTGATTCGCTTGACGCTGCTG	8.87
TCCGGCTACCAGCTCCACCCACTTTAGGCCTTGTAGGTCTTGATTCGCTTGACGCTGCTG	8.87
GATTAATTTCTGCCCTTATTCGCACGTGCCGTAACAGTCTTGATTCGCTTGACGCTGCTG	8.83
TGTCGGGTATGGGAATGTAGATCACGTGAATGAAAAGTCTTGATTCGCTTGACGCTGCTG	8.87
TGTCGGCTAAGGGAATGTAGATCACGTGAATGAAAAGTCTTGATTCGCTTGACGCTGCTG	8.86
CACAATATTTACAGTAATGTAGCACGCGTAACTCCTGTCTTGATTCGCTTGACGCTGCTG	8.95

Sequence	binding signal (log fluorescence intensity)
TAAAGGGAAGACGGTTGTGGTAGTGCCGGGTATTAAGTCTTGATTCGCTTGACGCTGCTG	8.87
CAGCATAGGACTTCTTCCCTGAAGCAAGTGATAACCGTCTTGATTCGCTTGACGCTGCTG	8.97
CTGGGACTTGACCCAACTCTCCCACGTGGGTCGTTTGTCTTGATTCGCTTGACGCTGCTG	8.78
CGGAAGTGTGGTAAACGTCGGATATCCGGTTCTTCTGTCTTGATTCGCTTGACGCTGCTG	12
CTGGGACTTGACGCAACTCTGCCACGTGGGTCGTTTGTCTTGATTCGCTTGACGCTGCTG	8.82
TAAAGGGAAGACGGTTGTGGTAGTTTCGGGTATTAAGTCTTGATTCGCTTGACGCTGCTG	8.97
GCTGCTGCGGAGCATACCCCACCGGATGTGACCCCGGTCTTGATTCGCTTGACGCTGCTG	10.3
GATTAATTTCTGCCCTTATTCGCACGTGCCATAACCGTCTTGATTCGCTTGACGCTGCTG	8.86
TACTGACTTATATATGCGAATGCACATAAATAGACCGTCTTGATTCGCTTGACGCTGCTG	8.85
TACTGAGTTATATATGCGAATGCACATGAATAGACCGTCTTGATTCGCTTGACGCTGCTG	8.97
TAAAGGGAAGACGGTTGTGGTAGTTCCGGGCATTAAGTCTTGATTCGCTTGACGCTGCTG	11.3
CGGAGGTGTCGTAAACGTCGGATATCCGGTTCTTCTGTCTTGATTCGCTTGACGCTGCTG	12.2
CGGAAGTGTCGTAGACGTCGGATATCCGGTTCTTCTGTCTTGATTCGCTTGACGCTGCTG	12.3
CACTGACTTATATATGCGAATGCACATGAATAGACCGTCTTGATTCGCTTGACGCTGCTG	8.71
TACTGACTTATATATGCGAATCCACATGAATAGACCGTCTTGATTCGCTTGACGCTGCTG	8.88
TAAAGGGAAGACGGTTGTGATAGTTCCGGGTATTAAGTCTTGATTCGCTTGACGCTGCTG	11.1
CCCAATTTTTACAGTAATGTAGCACGCGTAACTCCTGTCTTGATTCGCTTGACGCTGCTG	8.98
TAGTGACTTATATATGCGAATGCACATGAATAGACCGTCTTGATTCGCTTGACGCTGCTG	8.9
CACAATTTTTACAGTAATGTAGCACGCGTAACTCCTGTCTTGATTCGCTTGACGCTGCTG	8.83
GTGTAAAGGATCCCATCCAACACACGTGTTAAAATGGTCTTGATTCGCTTGACGCTGCTG	9.02
GGAAAAAGGCCCAGGGTAACACCGGAAGCGGGCTTAGTCTTGATTCGCTTGACGCTGCTG	10.5

Sequence	binding signal (log fluorescence intensity)
GATTAAATTCTGCCCTTATTCGCACGTGCCATAACAGTCTTGATTCGCTTGACGCTGCTG	8.86
CAGCATAGGACTTCTTCCCTGAAGCAATTGATAACGGTCTTGATTCGCTTGACGCTGCTG	8.9
TACTGACTTATATATGCGAATGCACATGAATAGACGGTCTTGATTCGCTTGACGCTGCTG	8.69
CGGAAATGTCGTAAACGTCGGATATCCGGTTCTTCTGTCTTGATTCGCTTGACGCTGCTG	12.6
CAGCATAAGACTTCTTCCCTGAAGCAATTGATAACCGTCTTGATTCGCTTGACGCTGCTG	8.89
GGAAAAAGGTCCAGGGTAACACCGGAAGTGGGCTTAGTCTTGATTCGCTTGACGCTGCTG	10.9
GGTAAAAGGCCCAGGGTAACACCGGAAGTGGGCTTAGTCTTGATTCGCTTGACGCTGCTG	11
GCTGCTGCGGTGCATACCCCACCGGTTGTGACCCCGGTCTTGATTCGCTTGACGCTGCTG	8.84
TAAAGGGAAGACGGTTGTGGTGGTTCCGGGTATTAAGTCTTGATTCGCTTGACGCTGCTG	11.1
CAGCATAGGACTTCTTCCCTGAAGCAATGGATAACCGTCTTGATTCGCTTGACGCTGCTG	9
TTTCGGGTAAGGGAATGTAGATCACGTGAATGAAAAGTCTTGATTCGCTTGACGCTGCTG	8.8
GGAACAAGGCCCAGGGTAACACCGGAAGTGGGCTTAGTCTTGATTCGCTTGACGCTGCTG	10.9
CGGAAGTGTCGTAAATGTCGGATATCCGGTTCTTCTGTCTTGATTCGCTTGACGCTGCTG	12.7
CGGAAGTGTCGTAAACGTCGGATATACGGTTCTTCTGTCTTGATTCGCTTGACGCTGCTG	9.29
TAAAGGGAAGACGGTTGTGGTAGTTACGGGTATTAAGTCTTGATTCGCTTGACGCTGCTG	9.1
CACAATTTTTACAGTAATGTAGCACGCGTGACTCCTGTCTTGATTCGCTTGACGCTGCTG	9
GCTGCTGCGGTGCATACCCCACCGGATGTAACCCCGGTCTTGATTCGCTTGACGCTGCTG	10.2
GTGTATAGGATCCCATCCAACAAACGTGTTAAAATGGTCTTGATTCGCTTGACGCTGCTG	8.94
GTGTATAGGATCCCATCCAACACACGTGTTAAAAGGGTCTTGATTCGCTTGACGCTGCTG	8.9
TCCGGCTGCCAGCTCCACCCACTTCAGGCCTTGTAGGTCTTGATTCGCTTGACGCTGCTG	8.74
TACTGACTTATATATGCGAATGCACATGACTAGACCGTCTTGATTCGCTTGACGCTGCTG	8.72

Sequence	binding signal (log fluorescence intensity)
TGCTGACTTATATATGCGAATGCACATGAATAGACCGTCTTGATTCGCTTGACGCTGCTG	8.75
CTGGGACTTGACCCAACTCTGCCACGTGGGTCGTTGGTCTTGATTCGCTTGACGCTGCTG	8.95
TAAAGGGAAGACGGTTGTGGTAGTTCCGGGTATTACGTCTTGATTCGCTTGACGCTGCTG	11.1
CTGGGACTTGACCCAACTCTACCACGTGGGTCGTTTGTCTTGATTCGCTTGACGCTGCTG	9.09
TACTGACTTATATATGCGAGTGCACATGAATAGACCGTCTTGATTCGCTTGACGCTGCTG	8.93
TCCGGCTACCAGCTCCACCCACTTCAGGCCTTGTCGGTCTTGATTCGCTTGACGCTGCTG	9.01
CAGCATAGGACATCTTCCCTGAAGCAATTGATAACCGTCTTGATTCGCTTGACGCTGCTG	8.87
TAAAGGGAAGACGGTTGTGGTAGTTCTGGGTATTAAGTCTTGATTCGCTTGACGCTGCTG	8.85
GATTAATTTCTGCCCTTATTCGCACGTGCCATAATAGTCTTGATTCGCTTGACGCTGCTG	8.85
AGAAAAAGGCCCAGGGTAACACCGGAAGTGGGCTTAGTCTTGATTCGCTTGACGCTGCTG	11.1
GGAAAAAGGCCCAGGGTAACACCGGACGTGGGCTTAGTCTTGATTCGCTTGACGCTGCTG	9.38
GATTAATTTCTGCCCTTATTCGTACGTGCCATAACAGTCTTGATTCGCTTGACGCTGCTG	8.81
GTGTATAGGATCCCATCCAACACCCGTGTTAAAATGGTCTTGATTCGCTTGACGCTGCTG	8.86
TAAAGGGACGACGGTTGTGGTAGTTCCGGGTATTAAGTCTTGATTCGCTTGACGCTGCTG	11.3
GTGTATAGGATCCCATCCAACACACGTGTTAACATGGTCTTGATTCGCTTGACGCTGCTG	8.68
GCTGCTGCGGTGCATACCCCACCGGATGTGACCCGGGTCTTGATTCGCTTGACGCTGCTG	10.3
TAAAGGGAAGACGGTTGTGTTAGTTCCGGGTATTAAGTCTTGATTCGCTTGACGCTGCTG	11.3
TCCGGCTACCAGCTCCACCCACTTCAGGCCTTGTGGGTCTTGATTCGCTTGACGCTGCTG	8.96
